# Results reported in patent US7592316B2, “Peptides as NS3-serine protease inhibitors of hepatitis C virus” (Schering Corporation, priority 2000, dated 2009).
# Target: HCV NS3/NS4A protease (strain 1a) (Hepatitis C virus genotype 1a, UniProt P27958)
# Assay: biochemical
# Conditions: Table 4; HCV NS3/NS4A protease, spectrophotometric assay, 30° C., pH 6.5; read-out: Ki* Range
row,Structure (SMILES),Ki [nM]
1,CCCC(NC(=O)[C@@H]1C[C@@H](NS(=O)(=O)c2cccc3ccccc23)CN1C(=O)[C@@H](NC(=O)OCC(C)C)C1CCCCC1)C(=O)C(=O)NCC(=O)N[C@H](C(N)=O)c1ccccc1 (stereo partly drawn) (Isobutyloxycarbonyl-[Chg][Pro(trans-4-NH2)](Naphthalene1sulfonyl)[X2]G[Phg]-NH2),101 to 1000

# Same assay, conditions: Table 5; HCV NS3/NS4A protease, 30° C., pH 6.5; read-out: Ki* Range
row,Structure (SMILES),Ki [nM]
1,C=CCCNC(=O)C(=O)C(CCC=C)NC(=O)[C@@H]1[C@H]2[C@@H](CN1C(=O)C(NC(=O)NC13CC4CC(CC(C4)C1)C3)C(C)(C)C)C2(Cl)Cl (some centres unmarked),1 to 100
2,C=CCNC(=O)C(=O)C(CCC)NC(=O)[C@@H]1CC(c2ccccc2)CN1C(=O)CC1CCCCC1 (some centres unmarked),> 1000

# Continued, values first:
row,Ki [nM],Structure (SMILES)
1,> 1000,CCCC(NC(=O)[C@@H]1C2C(CN1C(=O)C(NC(=O)OC(C)(C)C)C1CCCCC1)C2(C)C)C(=O)C(=O)NCCC(=O)NC(C)(C)C (some centres unmarked)
2,1 to 100,CCCC(NC(=O)[C@@H]1[C@@H]2[C@H](CN1C(=O)[C@@H](NC(=O)OC(C)(C)C)C1CCCCC1)C2(C)C)C(=O)C(=O)NCC(=O)NCc1ccccc1 (some centres unmarked)

# Same assay, conditions: Table 5; HCV NS3/NS4A protease, spectrophotometric assay, 30° C., pH 6.5; read-out: Ki* Range
row,Structure (SMILES),Ki [nM]
1,CC(C)(C)NC(=O)N[C@H](C(=O)N1C[C@@H]2[C@H]([C@H]1C(=O)NC(CC1CCC1)C(=O)C(N)=O)C2(Cl)Cl)C1CCCCC1 (some centres unmarked),1 to 100
2,CCC[C@@H](NC(=O)[C@@H]1C[C@@H](CCC(C)C)CN1C(=O)[C@@H](NC(=O)OC(C)(C)C)C(C)(C)C)C(=O)C(=O)NCC(=O)NC(C(=O)N(C)C)c1ccccc1 (stereo partly drawn) (Boc-[Tle][Pro(4R-isopentyl)][X19]G[ξPhg]-NMe2),> 1000
3,C=CCCC(NC(=O)[C@@H]1[C@H]2C[C@H]2CN1C(=O)[C@@H](NC(=O)OC(C)(C)C)C1CCCCC1)C(=O)C(=O)NCC=C (some centres unmarked),> 1000
4,"CN(C)C(=O)[C@@H](NC(=O)CNC(=O)C(=O)CNC(=O)[C@@H]1[C@@H]2[C@H](CN1C(=O)[C@@H](NC(=O)OC(C)(C)C)C1CCCCC1)C2(C)C)c1ccccc1 (Boc-[Chg][Pro(3R,4S-CMe2)][X35]G[Phg]-NMe2)",> 1000
5,CC(C)(C)[C@H](NC(=O)NC12CC3CC(CC(C3)C1)C2)C(=O)N1C[C@@H]2[C@H]([C@H]1C(=O)NC(CC1CCC1)C(=O)C(N)=O)C2(C)C (some centres unmarked),1 to 100
6,CC(C)(C)OC(=O)N[C@H](C(=O)N1C[C@@H]2[C@H]([C@H]1C(=O)NC(CC1CCC1)C(=O)C(N)=O)C2(C)C)C1CC2CCCCC2C1 (some centres unmarked),101 to 1000
7,CN(C(=O)N[C@H](C(=O)N1C[C@@H]2[C@H]([C@H]1C(=O)NC(CC1CCC1)C(=O)C(N)=O)C2(C)C)C1CCCCC1)c1ccccc1 (some centres unmarked),> 1000

# The next lines start with the values.
row,Ki [nM],Structure (SMILES)
1,101 to 1000,CCCCC(NC(=O)[C@@H]1[C@H]2[C@@H]3CC[C@@H](C3)[C@H]2CN1C(=O)[C@@H](NC(=O)OCC(C)C)C(C)(C)C)C(=O)C(=O)NCC(=O)NC(C(=O)N(C)C)c1ccccc1 (some centres unmarked)
2,101 to 1000,C=CCCC(NC(=O)[C@@H]1[C@H]2[C@@H](CN1C(=O)[C@@H](NC(=O)OC(C)(C)C)C(C)(C)C)C2(C)C)C(=O)C(=O)O (some centres unmarked)
3,1 to 100,CCCC(NC(=O)[C@@H]1[C@@H]2[C@H](CN1C(=O)[C@@H](NC(=O)OC(C)(C)C)C(C)(C)C)C2(Cl)Cl)C(=O)C(N)=O (some centres unmarked)
4,> 1000,C=CCCC(NC(=O)[C@@H]1[C@H]2[C@@H](CN1C(=O)[C@@H](NC(=O)OC(C)(C)C)C1CCCCC1)C2(C)C)C(=O)C(=O)NCC=C (some centres unmarked)
5,> 1000,C=CCNC(=O)C(=O)C(CCC)NC(=O)[C@@H]1[C@H]2[C@@H](CN1C(=O)[C@@H](NC(=O)CCc1ccccc1)C1Cc3ccccc3C1)C2(C)C (some centres unmarked)
6,101 to 1000,C=CCC(NC(=O)[C@@H]1[C@H]2[C@@H](CN1C(=O)[C@@H](NC(=O)OC(C)(C)C)C(C)(C)C)C2(C)C)C(=O)C(=O)NCC(=O)NCc1ccco1 (some centres unmarked)
7,1 to 100,CC(=O)N[C@H](C(=O)N1CC2C([C@H]1C(=O)NC(CC1CC1)C(=O)C(=O)NCC(=O)N[C@H](C(=O)N(C)C)c1ccccc1)C2(C)C)C(C)(C)C (some centres unmarked)
8,> 1000,CCCC(NC(=O)[C@@H]1[C@H]2[C@@H](CN1C(=O)[C@@H](NC(=O)OC(C)(C)C)C(C)(C)C)C2(C)C)C(=O)C(=O)NCCCCc1ccccc1 (some centres unmarked)

# Same assay, conditions: Table 6; HCV NS3/NS4A protease, 30° C., pH 6.5; read-out: Ki*
row,Ki [nM],Structure (SMILES)
1,1 to 100,CC(C)C(=O)[C@@H](NC(=O)CNC(=O)C(=O)C(CC1CCC1)NC(=O)[C@@H]1[C@@H]2[C@H](CN1C(=O)[C@@H](NC(=O)NC(C)(C)C)C1CCCCC1)C2(Cl)Cl)c1ccccc1 (some centres unmarked)
2,1 to 100,CN(C)C(=O)[C@@H](NC(=O)CNC(=O)C(=O)C(CC1CC1)NC(=O)[C@@H]1[C@H]2CC(F)(F)C[C@H]2CN1C(=O)[C@@H](NC(=O)OC(C)(C)C)C1CCCCC1)c1ccccc1 (some centres unmarked)
3,1 to 100,CN(C)C(=O)[C@@H](NC(=O)CNC(=O)C(=O)C(CCC(F)(F)F)NC(=O)[C@@H]1[C@H]2CC(C)(C)O[C@H]2CN1C(=O)[C@@H](NC(=O)NC(C)(C)C)C(C)(C)C)c1ccccc1 (some centres unmarked)

# *1 amine or outer side, *2 acyl side, *3 side chain or, on linkers, in order; H or OH if unused. Where a SMILES comes first, the peptide text is derived from it. [ ]: non-standard residue; d: D form. The star is where a group is joined. ξ: configuration not given here. Pro(trans-4-NH2) = O=C([C@@H]1C[C@@H](N[*:3])CN1[*:1])[*:2]; Pro(3R,4S-CMe2) = CC1(C)[C@@H]2[C@@H](C(=O)O)NC[C@@H]21; Pro(4R-isopentyl) = CC(C)CC[C@H]1CN[C@H](C(=O)O)C1; Naphthalene1sulfonyl = O=S(=O)(c1cccc2ccccc12)*; X19 = CCC[C@@H](N[*:1])C(=O)C(=O)[*:2]; Isobutyloxycarbonyl = CC(C)COC(=O)*; X2 = CCCC(N[*:1])C(=O)C(=O)[*:2]; Chg = N[C@H](C(=O)O)C1CCCCC1; Phg = N[C@H](C(=O)O)c1ccccc1; Tle = CC(C)(C)[C@H](N)C(=O)O; X35 = O=C(CN[*:1])C(=O)[*:2]; ξPhg = NC(C(=O)O)c1ccccc1; Boc = CC(C)(C)OC(=O)*
